Test results published in the RNAGym collection of RNA variant scans (doi:10.1101/gad.245936.114).
This sample is rich in variants without activity.

B1: tRNA (parent)
chain: CUCUCGGUAGCCAAGUUGGUUUAAGGCGCAAGACUUUAAUUUAUCACUACGAAAUCUUGAGAUCGGGCGUUCGACUCGCCCCCGGGAGAUUUUUUCCUCGAGCAA

Variants of: B1
Test: nonsense suppression (GFP-seq) (ratio to wild type); higher = more function; SUP4oc tRNA, yeast GFP reporter sort-seq
In short: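 Yeast were grown in raffinose/galactose medium with 80 mg/L adenine, each strain bearing a genome-integrated ochre-suppressor tRNA variant from a ~3% random-mutation library, a galactose-driven GFP ochre reporter, and RFP. After sorting into GFP/RFP bins, every bin was sequenced on an Illumina platform at phred ≥30. The GFPSEQ value, a measure of nonsense suppression, is the weighted bin median GFP/RFP relative to the unmutated parent tRNA, using each variant's estimated cell share per bin as the weight. Only variants with ≥100 reads and ≥30 cells were included.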

A60G U70C C75A and A60G U71A cannot be ordered by nonsense suppression: at most 0.026 for the first, at most 0.026 for the second.

A60U A74C and A60U C68G cannot be ordered by nonsense suppression: at most 0.026 for the first, at most 0.026 for the second.

Compared with A60U C68U, A60U C72A is lower in nonsense suppression: 1.1 for the first, at most 0.026 for the second.

A60U C72G and A60U C80G C81U cannot be ordered by nonsense suppression: at most 0.026 for the first, at most 0.026 for the second.

Going from A60U C83G to A60U G65C C81G, the nonsense suppression rises from at most 0.026 to 0.203.

Going from A60U G65U A74C C82A to A60U G67A, the nonsense suppression rises from at most 0.026 to 0.0457.

A60U G67A U71C C82A G86A and A60U G69U C83A G88U cannot be ordered by nonsense suppression: at most 0.026 for the first, at most 0.026 for the second.

Compared with A60U G73C, A60U G78C G85A is higher in nonsense suppression: at most 0.026 for the first, 1.16 for the second.

A60U U63C C72A and A60U U70A cannot be ordered by nonsense suppression: at most 0.026 for the first, at most 0.026 for the second.

First: A60U U70C U76C
Second: G61A A62C
The nonsense suppression of the first is lower: at most 0.026 for the first, 0.0863 for the second.

G61A A62C G67C and G61A A62G cannot be ordered by nonsense suppression: at most 0.026 for the first, at most 0.026 for the second.

Going from G61A A62U to G61A A62U A89C, the nonsense suppression falls from 0.311 to at most 0.026.

G61A A62U G84U and G61A C68U G69A G73A cannot be ordered by nonsense suppression: at most 0.026 for the first, at most 0.026 for the second.

Compared with G61A C72A, G61A C80U is higher in nonsense suppression: 0.0325 for the first, 0.232 for the second.

G61A C81A and G61A G65C G69A C80U cannot be ordered by nonsense suppression: at most 0.026 for the first, at most 0.026 for the second.

G61A G66A G73A and G61A G66C U76C C79G cannot be ordered by nonsense suppression: at most 0.026 for the first, at most 0.026 for the second.

G61A G67A C79G and G61A G67U cannot be ordered by nonsense suppression: at most 0.026 for the first, at most 0.026 for the second.

G61A G69C C72G C77A and G61A G69C C72G C77A A89C cannot be ordered by nonsense suppression: at most 0.026 for the first, at most 0.026 for the second.

G61A G73C and G61A G84A cannot be ordered by nonsense suppression: at most 0.026 for the first, at most 0.026 for the second.

Going from G61A G85U to G61A G86C, the nonsense suppression falls from 0.429 to at most 0.026.

G61A G88A and G61A U70A A87U cannot be ordered by nonsense suppression: at most 0.026 for the first, at most 0.026 for the second.

G61A U70A A89G and G61A U70A C80G A87C cannot be ordered by nonsense suppression: at most 0.026 for the first, at most 0.026 for the second.

Compared with G61A U76A C83G, G61A U76G is higher in nonsense suppression: at most 0.026 for the first, 0.0268 for the second.

G61C A74U C83G and G61C A87G G88U cannot be ordered by nonsense suppression: at most 0.026 for the first, at most 0.026 for the second.

G61C A89C and G61C A89G cannot be ordered by nonsense suppression: at most 0.026 for the first, at most 0.026 for the second.

G61C A89U and G61C C64G cannot be ordered by nonsense suppression: at most 0.026 for the first, at most 0.026 for the second.

G61C C64U C68G G84A and G61C C68A A74U cannot be ordered by nonsense suppression: at most 0.026 for the first, at most 0.026 for the second.

G61C C68U C79G and G61C C68U U76C cannot be ordered by nonsense suppression: at most 0.026 for the first, at most 0.026 for the second.

Going from G61C C75A to G61C C75G, the nonsense suppression rises from 1.06 to 1.21.

Going from G61C C77A to G61C C77G, the nonsense suppression rises from at most 0.026 to 0.0296.

Compared with G61C C77U, G61C C79A is lower in nonsense suppression: 0.0267 for the first, at most 0.026 for the second.

Going from G61C C80U to G61C C80U A87U, the nonsense suppression falls from 0.731 to at most 0.026.

G61C C82A and G61C C82A G85A cannot be ordered by nonsense suppression: at most 0.026 for the first, at most 0.026 for the second.

G61C C83A and G61C G66A cannot be ordered by nonsense suppression: at most 0.026 for the first, at most 0.026 for the second.

G61C G66C G73U and G61C G67U cannot be ordered by nonsense suppression: at most 0.026 for the first, at most 0.026 for the second.

G61C G67U G73U and G61C G69A G84A cannot be ordered by nonsense suppression: at most 0.026 for the first, at most 0.026 for the second.

Compared with G61C G78U, G61C G85C is lower in nonsense suppression: 0.13 for the first, 0.045 for the second.

G61C G88C and G61C U70C cannot be ordered by nonsense suppression: at most 0.026 for the first, at most 0.026 for the second.

Going from G61C U70C C77A G84C to G61C U71C, the nonsense suppression rises from at most 0.026 to 0.061.

Going from G61C U76C C81A to G61U A62U, the nonsense suppression rises from at most 0.026 to 0.0397.

G61U A62U A89G and G61U A62U C72A cannot be ordered by nonsense suppression: at most 0.026 for the first, at most 0.026 for the second.

Work on G61U A74C C82A G88C yielded a nonsense suppression of at most 0.026.
